Results as given in PubChem BioAssay AID652011 (Sanford-Burnham Center for Chemical Genomics, 2013).
Some entries of the source have several records that differ or are many. This list holds those alone.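 Rule for the calls: active = IC50 of 10 µM or lower on HIF-2a in both cell lines, but not on HIF-1a; inactive = the rest, including compounds also potent on HIF-1a.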 An entry can have further records. The records of an entry are repeats in other runs, samples, wells, individuals or studies. A tag in brackets gives the origin of a value. A, B and so on number the origins entry by entry.

Columns and labels:
[1] = target: Endothelial PAS domain-containing protein 1 (Homo sapiens) (UniProt Q99814); test: HIF-1a and HIF-2a reporter inhibitors, SAR follow-up, cell-based, luminescence, MIAPaCa-2, 786-0, panel (AID 652011); conditions: MIAPaCa-2/PANC HIF reporter, luciferase luminescence, desferoxamine, overnight; HIF2a PANC cells; mean of runs
How it was run: (§1)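 Probe or stimulus: desferoxamine stimulus / Schedule: overnight compound incubation at 37 °C, 10 min reagent / Dosing: compounds from 10 mM and 0.3125 mM stocks, 1% DMSO final / Signal: luciferase luminescence with One-Glo reagent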

[2] = test system: HIF2a PANC; test: as above; conditions: MIAPaCa-2/PANC HIF reporter, luciferase luminescence, desferoxamine, overnight, run 2, individual run IC50, panel line
How it was run: as §1

Sequence of UniProt Q99814 (Q99814 whole entry, looked up, the tested form may be a part): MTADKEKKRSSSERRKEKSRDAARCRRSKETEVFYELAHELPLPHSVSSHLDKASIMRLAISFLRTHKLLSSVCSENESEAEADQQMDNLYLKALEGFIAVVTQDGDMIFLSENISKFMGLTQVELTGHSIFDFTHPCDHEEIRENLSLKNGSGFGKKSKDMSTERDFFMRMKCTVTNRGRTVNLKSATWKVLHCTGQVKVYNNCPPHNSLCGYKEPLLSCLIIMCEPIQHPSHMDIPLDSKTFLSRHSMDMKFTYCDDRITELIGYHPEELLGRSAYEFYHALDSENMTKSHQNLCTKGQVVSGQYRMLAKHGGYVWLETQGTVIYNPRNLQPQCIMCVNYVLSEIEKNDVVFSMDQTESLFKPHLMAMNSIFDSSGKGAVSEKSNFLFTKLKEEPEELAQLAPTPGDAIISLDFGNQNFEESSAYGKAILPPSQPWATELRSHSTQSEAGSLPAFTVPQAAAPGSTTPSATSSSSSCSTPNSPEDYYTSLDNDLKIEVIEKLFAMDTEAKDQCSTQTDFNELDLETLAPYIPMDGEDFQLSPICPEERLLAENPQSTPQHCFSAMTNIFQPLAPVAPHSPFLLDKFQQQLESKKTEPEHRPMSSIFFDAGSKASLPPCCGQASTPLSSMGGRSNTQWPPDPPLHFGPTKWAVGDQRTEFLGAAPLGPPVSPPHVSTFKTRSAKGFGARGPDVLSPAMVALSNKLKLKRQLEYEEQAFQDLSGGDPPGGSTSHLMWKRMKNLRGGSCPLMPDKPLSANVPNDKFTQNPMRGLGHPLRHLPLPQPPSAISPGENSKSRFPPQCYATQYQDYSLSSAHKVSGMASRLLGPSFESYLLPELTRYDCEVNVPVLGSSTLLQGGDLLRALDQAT

CC(C)(C)c1ccc(-c2noc(CCC(=O)NCc3ccco3)n2)cc1
IC50 [1]: < 190 nM [sample A] and inactive [sample B] | IC50 [2]: < 190 nM [sample A] and > 99 µM [sample B]

CCNC(=O)CCc1nc(-c2ccc(C(C)(C)C)cc2)no1
IC50 [1]: inactive [sample A] and < 190 nM [sample B]
